{"source": "PubChem BioAssay AID504339", "about": "(National Center for Advancing Translational Sciences (NCATS), 2011)", "note": "The whole screen tested about 390,000 compounds, of which about 17,000 (4.4%) were called active. Inconclusive means that the source gave no clear call. Such entries were picked first, then a sample of the others. Calls come from the whole dose curve; as a rule, active = well fitted inhibition curve with a large enough effect; inconclusive = small, poorly fitted or top-dose-only effect; inactive = no such curve, though single readings can be large or run the other way. Potencies beside an inconclusive call are fits to weak or partial responses and may not hold up. % is set by controls: 0 for no effect and ±100 for the full control effect; potency is the fitted concentration of half-maximal effect; tags give direction and shape of the fitted curve.", "data": [{"target": "Lysine-specific demethylase 4A (Homo sapiens) (UniProt O75164)", "sequence (O75164 whole entry, looked up, the tested form may be a part)": "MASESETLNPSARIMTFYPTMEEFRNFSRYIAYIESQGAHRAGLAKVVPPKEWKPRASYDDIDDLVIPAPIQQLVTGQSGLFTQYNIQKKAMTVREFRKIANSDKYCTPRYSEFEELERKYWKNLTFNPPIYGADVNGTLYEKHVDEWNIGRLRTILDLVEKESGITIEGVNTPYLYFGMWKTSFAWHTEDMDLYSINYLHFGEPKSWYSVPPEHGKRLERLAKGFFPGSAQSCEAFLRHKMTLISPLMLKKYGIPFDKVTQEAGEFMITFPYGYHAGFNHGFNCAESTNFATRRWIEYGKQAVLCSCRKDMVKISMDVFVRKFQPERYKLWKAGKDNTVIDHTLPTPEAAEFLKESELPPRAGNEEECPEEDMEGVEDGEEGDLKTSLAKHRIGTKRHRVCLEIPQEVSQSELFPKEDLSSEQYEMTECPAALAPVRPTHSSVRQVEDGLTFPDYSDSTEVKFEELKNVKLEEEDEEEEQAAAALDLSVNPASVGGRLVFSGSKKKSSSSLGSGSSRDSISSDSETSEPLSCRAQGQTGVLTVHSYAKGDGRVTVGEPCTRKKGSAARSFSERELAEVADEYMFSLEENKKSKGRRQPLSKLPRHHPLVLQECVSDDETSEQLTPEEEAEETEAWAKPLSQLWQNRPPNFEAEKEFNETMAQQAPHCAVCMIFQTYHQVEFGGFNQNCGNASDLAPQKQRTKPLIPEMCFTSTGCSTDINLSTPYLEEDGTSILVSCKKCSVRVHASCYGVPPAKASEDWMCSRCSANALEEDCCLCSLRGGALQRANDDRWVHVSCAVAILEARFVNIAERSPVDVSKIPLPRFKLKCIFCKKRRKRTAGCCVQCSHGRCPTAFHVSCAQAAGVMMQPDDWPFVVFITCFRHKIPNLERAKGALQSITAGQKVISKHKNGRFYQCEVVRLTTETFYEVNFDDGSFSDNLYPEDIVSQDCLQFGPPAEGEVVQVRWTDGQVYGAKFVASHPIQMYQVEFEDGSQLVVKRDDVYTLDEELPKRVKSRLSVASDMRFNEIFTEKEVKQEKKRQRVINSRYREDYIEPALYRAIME", "assay": "qHTS Assay for Inhibitors of JMJD2A-Tudor Domain; note: nearly all actives have a fitted effect of over 50% in size", "settings": "AlphaScreen JMJD2A-Tudor / H3K4me3 peptide binding; activity change, negative = inhibition: at 114 µM (top of the series)", "values": [{"smiles": "Cc1ccccc1Nc1scc(-c2ccc(Br)cc2)[n+]1-c1ccccc1C", "Potency": "inconclusive: 12.6 µM [inhibitor, full curve]"}, {"smiles": "Cc1ccc(Cl)cc1NC(=O)C(=O)N/N=C/c1ccc2c(c1)OCO2", "activity change, negative = inhibition": "inactive: -17.9%"}, {"smiles": "Cc1nc2ccccc2c(-c2ccccc2)c1CC(=O)O", "Potency": "inconclusive: 70.8 µM [inhibitor, single point]"}, {"smiles": "COc1ccc(N2CCN(Cc3nc(N)nc(N4CCCc5ccccc54)n3)CC2)cc1", "Potency": "active: 50.1 µM"}, {"smiles": "CCc1cccc(OCC(=O)Nc2ccc(S(=O)(=O)Nc3ccccn3)cc2)c1", "activity change, negative = inhibition": "inactive: -13.8%"}, {"smiles": "Cc1cc(/C=N/NC(=O)CC2(C)OCCO2)c(C)n1-c1ccc(Cl)c(Cl)c1", "Potency": "inconclusive: 56.2 µM [inhibitor, partial curve]"}, {"smiles": "COc1cccc(/C=N/NC(=O)c2cc(-c3ccccn3)nc3ccccc23)c1O", "Potency": "active: 56.2 µM"}, {"smiles": "O=S(=O)(Nc1cccc(-c2cn3c(n2)SCC3)c1)c1ccc(F)cc1F", "Potency": "inconclusive: 79.4 µM [inhibitor, partial curve]"}, {"smiles": "CCOc1ccc(-n2cc(-c3ccccc3)c3c(=S)nc[nH]c32)cc1", "Potency": "inconclusive: 79.4 µM [inhibitor, partial curve]"}, {"smiles": "CC(C)CC(=O)NCCCN1CCN(CCCNC(=O)CC(C)C)CC1", "activity change, negative = inhibition": "inactive: -10.4%"}, {"smiles": "Cc1ccc(NC2CCCN(C(=O)c3cc4ncccn4n3)C2)cc1C", "note": "(stereo not given)", "activity change, negative = inhibition": "inactive: -28.1%"}, {"smiles": "COc1cccc(CNc2ccc3[nH]c(=O)[nH]c3c2)c1OCc1ccc(F)cc1", "Potency": "active: 39.8 µM"}, {"smiles": "CC(C)C(c1nnnn1C1CCCCC1)N1CCc2ccccc21", "note": "(stereo not given)", "Potency": "inconclusive: 56.2 µM [inhibitor, partial curve, poor fit]"}, {"smiles": "Cc1csc2nc(COC(=O)c3cccc(N(C)C)c3)cc(=O)n12", "Potency": "inconclusive: 56.2 µM [inhibitor, partial curve]"}, {"smiles": "CCOc1cc(-c2sc(Nc3ccc(CC)cc3)n[n+]2-c2ccccc2)ccc1OC", "Potency": "inconclusive: 63.1 µM [inhibitor, partial curve]"}, {"smiles": "COc1ccccc1/C=C/C=N/n1c(COc2ccccc2)n[nH]c1=S", "Potency": "inconclusive: 79.4 µM [inhibitor, partial curve]"}, {"smiles": "CCc1nnc(NC(=O)c2ccc(-c3ccccc3F)o2)s1", "activity change, negative = inhibition": "inconclusive: -39.9% [inhibitor]"}, {"smiles": "Nc1ccc2oc(Cc3ccc(Cl)cc3)nc2c1", "Potency": "inconclusive: 31.6 µM [inhibitor, partial curve]"}, {"smiles": "O=C(c1ccccn1)N1CCN(S(=O)(=O)c2cccc(Br)c2)CC1", "activity change, negative = inhibition": "inactive: -9.02%"}, {"smiles": "O=C(O)C1CC=CCC1C(=O)Nc1ccc(N2CCN(Cc3ccccc3)CC2)cc1", "note": "(stereo not given)", "Potency": "inconclusive: 63.1 µM [inhibitor, single point]"}, {"smiles": "CCN(CC(=O)NC(C)(C)C)Cc1cc(=O)n2c(-c3ccccc3)csc2n1", "activity change, negative = inhibition": "inactive: -27.2%"}, {"smiles": "O=C(C=Cc1ccccc1O)c1ccccc1O", "Potency": "inconclusive: 56.2 µM [inhibitor, partial curve]"}, {"smiles": "CCOC(=O)C1(Cc2cccc(Cl)c2)CCCN(C(=O)c2occc2C)C1", "note": "(stereo not given)", "Potency": "inconclusive: 15.8 µM [inhibitor, full curve]"}, {"smiles": "O=C(Nc1cccc2ccccc12)N1CC=C(c2ccccc2)CC1", "activity change, negative = inhibition": "inactive: -16.5%"}, {"smiles": "CCN(CC)C(=O)C1CCCN(Cc2cccc(Oc3ccccc3)c2)C1", "note": "(stereo not given)", "Potency": "active: 22.4 µM"}, {"smiles": "O=C1C(NS(=O)(=O)c2ccc(Cl)cc2)=C(N2CCCCC2)C(=O)c2ccccc21", "Potency": "active: 11.2 µM"}, {"smiles": "CC(C)c1ccc2[nH]c3nc(SCC(=O)NC4CC4)nnc3c2c1", "Potency": "inconclusive: 3.98 µM [inhibitor, partial curve, poor fit]"}, {"smiles": "COc1cc(OC)c(OC)cc1/C=C/c1nc2ccccc2c(=O)n1-c1ccc(Br)c(C)c1", "Potency": "inconclusive: 44.7 µM [inhibitor, partial curve]"}, {"smiles": "CC(C)NCc1cccc([N+](=O)[O-])c1", "Potency": "active: 20 µM"}, {"smiles": "C/C(=N\\NC(=O)c1ccc([N+](=O)[O-])cc1)c1cc2ccccc2oc1=O", "activity change, negative = inhibition": "inactive: -34.9%"}, {"smiles": "Cc1ccc(Cl)cc1N1CCN(C(=O)C2CCCN(Cc3nc(-c4cccc(Cl)c4)oc3C)C2)CC1", "note": "(stereo not given)", "Potency": "inconclusive: 11.2 µM [inhibitor, partial curve]"}, {"smiles": "COc1cc(S(=O)(=O)n2cnc3ccccc32)ccc1Br", "activity change, negative = inhibition": "inactive: -11.6%"}, {"smiles": "Cc1ccc(NC(=O)C2CCCN(S(=O)(=O)c3ccc4c(c3)CCCC(=O)N4)C2)cc1Cl", "note": "(stereo not given)", "activity change, negative = inhibition": "inactive: -1.29%"}, {"smiles": "O=C(CN1C(=O)CC(c2ccco2)Sc2ccccc21)NCc1ccc2c(c1)OCO2", "note": "(stereo not given)", "Potency": "inconclusive: 56.2 µM [inhibitor, partial curve]"}, {"smiles": "CCOC(=O)CC(=O)CSc1[nH]c(=O)cc(C)c1C#N", "activity change, negative = inhibition": "inactive: -15.7%"}, {"smiles": "COc1ccc(NC(=O)C(OC(=O)CNC(=O)c2ccccc2)c2ccccc2)cc1Cl", "note": "(stereo not given)", "activity change, negative = inhibition": "inactive: -23.3%"}, {"smiles": "CC1CCCCN1S(=O)(=O)c1ccc(C(=O)N(CCCN(C)C)c2nc3ccc(Br)cc3s2)cc1", "note": "(stereo not given)", "Potency": "active: 44.7 µM"}, {"smiles": "C[C@H](NC(=O)c1ccc(C(C)(C)C)cc1)C(=O)N1CCC2(CC1)NCCc1[nH]cnc12", "activity change, negative = inhibition": "inactive: -32.8%"}, {"smiles": "O=C(NCc1ccc(Cl)cc1)c1ccc2c(c1)N(Cc1ccccc1F)C(=O)c1ccccc1S2=O", "note": "(stereo not given)", "activity change, negative = inhibition": "inactive: -11.4%"}, {"smiles": "C=CCOc1ccc(/C(O)=C2/C(=O)C(=O)N(CCCn3ccnc3)C2c2ccco2)cc1", "note": "(stereo not given)", "Potency": "inconclusive: 89.1 µM [inhibitor, single point]"}, {"smiles": "Oc1c(C(Nc2ccccn2)c2cccnc2)cc(Cl)c2cccnc12", "note": "(stereo not given)", "Potency": "active: 39.8 µM"}, {"smiles": "CCn1nc(NS(=O)(=O)c2ccc(NC(C)=O)cc2)c2cc3ccccc3nc21", "Potency": "inconclusive: 15.8 µM [inhibitor, full curve]"}, {"smiles": "O=C(O)C(Cc1ccccc1)N1C(=O)/C(=C/c2cccs2)SC1=S", "note": "(stereo not given)", "Potency": "inconclusive: 79.4 µM [inhibitor, partial curve]"}, {"smiles": "COC(=O)CCCC(=O)OC", "activity change, negative = inhibition": "inactive: -6.12%"}, {"smiles": "COc1cc(NC(=S)NCCC(c2ccccc2)c2ccccc2)cc(OC)c1", "Potency": "inconclusive: 56.2 µM [inhibitor, partial curve, poor fit]"}, {"smiles": "CCOc1ccc(NC(=O)CN(C)S(=O)(=O)c2ccc3[nH]c4c(c3c2)CCCC4)cc1", "Potency": "inconclusive: 25.1 µM [inhibitor, full curve]"}, {"smiles": "CN1CCN(S(=O)(=O)c2cccc(C(=O)Nc3nc(-c4ccccc4)cs3)c2)CC1", "Potency": "inconclusive: 31.6 µM [inhibitor, partial curve]"}, {"smiles": "Cc1cccc(C2c3[nH]c4ccccc4c3CCN2C(=O)c2cc(-c3cccn3C)n[nH]2)n1", "note": "(stereo not given)", "Potency": "active: 56.2 µM"}, {"smiles": "O=C(c1cccc(F)c1)N1CCN(c2cc(N3CCCCC3)c(F)cc2[N+](=O)[O-])CC1", "Potency": "inconclusive: 31.6 µM [inhibitor, partial curve]"}, {"smiles": "Cc1cccc(C(=O)Nc2cccc(OCc3cc(=O)n4ccccc4n3)c2)c1", "activity change, negative = inhibition": "inactive: -3.9%"}, {"smiles": "CCc1cccc(NC(=O)CCS(=O)(=O)c2cc3c4c(c2)CCN4C(=O)CC3)c1", "activity change, negative = inhibition": "inactive: -16.6%"}, {"smiles": "Cc1sc2ncn(CCn3cnc4sc(C)c(C)c4c3=O)c(=O)c2c1C", "activity change, negative = inhibition": "inactive: -15.6%"}, {"smiles": "CCOC(=O)Cc1ccc(NC(=O)c2ccc(C(C)(C)C)cc2)cc1", "Potency": "inconclusive: 3.55 µM [inhibitor, single point]"}, {"smiles": "Cc1cc(Cl)ccc1OCC(=O)OCC(=O)N1CCC(C(N)=O)CC1", "activity change, negative = inhibition": "inactive: 6.82%"}, {"smiles": "Cc1cccc(C(=O)N/N=C/c2cc(Br)c(Br)o2)c1", "Potency": "inconclusive: 100 µM [inhibitor, partial curve, poor fit]"}, {"smiles": "CC1=NN(c2nc(-c3ccccc3)cs2)C(=O)C1N=Nc1ccccc1", "note": "(stereo not given)", "Potency": "inconclusive: 10 µM [inhibitor, full curve, poor fit]"}, {"smiles": "CCN(CC(=O)Nc1ccc(NC(C)=O)cc1)Cc1c(O)ccc2cc(Br)ccc12", "Potency": "active: 50.1 µM"}, {"smiles": "CC(=O)Nc1ccc(NC(=O)c2cccc3ccccc23)cc1", "Potency": "inconclusive: 89.1 µM [inhibitor, single point]"}, {"smiles": "Cc1ccc2[nH]c3c(=O)n(CCc4cnc[nH]4)cnc3c2c1", "Potency": "inconclusive: 89.1 µM [inhibitor, single point]"}, {"smiles": "CC(C)CCNC(=O)c1cn(C)c2ccc(S(=O)(=O)N3CCOCC3)cc2c1=O", "activity change, negative = inhibition": "inactive: -9.33%"}, {"smiles": "Cc1ccc(OCc2nnc(-c3ccccc3)o2)cc1", "activity change, negative = inhibition": "inactive: 54.2%"}, {"smiles": "CC1CCCN(CCCOc2ccc(Cl)cc2Br)C1", "note": "(stereo not given)", "Potency": "active: 22.4 µM"}, {"smiles": "CCOCCCNC(=O)C1(O)c2ccccc2NC(=O)N1c1ccc(Cl)cc1", "note": "(stereo not given)", "activity change, negative = inhibition": "inactive: -13.9%"}, {"smiles": "CCOc1ccc(Nc2ccc3nonc3c2[N+](=O)[O-])cc1", "Potency": "inconclusive: 17.8 µM [inhibitor, full curve]"}, {"smiles": "Cc1ccc(-c2csc(NC(=O)CCCc3cccs3)n2)cc1", "activity change, negative = inhibition": "inactive: -25.1%"}, {"smiles": "CCC(c1nnnn1CCOC)N1CCN(C(=O)c2ccco2)CC1", "note": "(stereo not given)", "Potency": "inconclusive: 44.7 µM [inhibitor, partial curve]"}, {"smiles": "CCCc1cc(=O)[nH]c(SCC(=O)Nc2cccc(S(=O)(=O)N3CCCCC3)c2)n1", "activity change, negative = inhibition": "inactive: -10.8%"}, {"smiles": "c1csc(CNc2ccc3c(c2)OCCO3)c1", "Potency": "inconclusive: 20 µM [inhibitor, full curve]"}, {"smiles": "COc1ccc(/C(=C\\Nc2ccc(C)c(C)c2)C(C)=O)cc1OC", "Potency": "inconclusive: 15.8 µM [inhibitor, full curve, poor fit]"}, {"smiles": "Cc1ccccc1NC(=O)CSc1nnc(-c2ccco2)c(-c2ccco2)n1", "Potency": "active: 50.1 µM"}, {"smiles": "O=C(O)C1CSC2(CCN(Cc3ccccc3)CC2)N1", "note": "(stereo not given)", "Potency": "active: 10 µM"}, {"smiles": "COc1ccc(-n2c(CCC(=O)O)ccc2-c2ccccc2)c(OC)c1", "Potency": "inconclusive: 89.1 µM [inhibitor, partial curve]"}, {"smiles": "O=C1c2oc3ccccc3c(=O)c2C(c2cccs2)N1CCCN1CCOCC1", "note": "(stereo not given)", "activity change, negative = inhibition": "inactive: -21.9%"}, {"smiles": "CCCN(CCC)C(=O)CSc1nnc2cc(C)c3ccccc3n12", "Potency": "inconclusive: 39.8 µM [inhibitor, single point]"}, {"smiles": "O=C(COc1ccccc1)Nc1ccc(S(=O)(=O)N2CCCC2)cc1", "activity change, negative = inhibition": "inactive: -1.42%"}]}]}
